# Some of the results follow.
# B1: Clec18C (Homo sapiens) (protein)
# chain: MLHPETSPGRGHLLAVLLALLGTAWAEVWPPQLQEQAPMAGALNRKESFLLLSLHNRLRSWVQPPAADMRRLDWSDSLAQLAQARAALCGTPTPSLASGLWRTLQVGWNMQLLPAGLVSFVEVVSLWFAEGQRYSHAAGECARNATCTHYTQLVWATSSQLGCGRHLCSAGQAAIEAFVCAYSPRGNWEVNGKTIVPYKKGAWCSLCTASVSGCFKAWDHAGGLCEVPRNPCRMSCQNHGRLNISTCHCHCPPGYTGRYCQVRCSLQCVHGRLREEECSCVCDIGYGGAQCATKVHFPFHTCDLRIDGDCFMVSSEADTYYRARMKCQRKGGVLAQIKSQKVQDILAFYLGRLETTNEVIDSDFETRNFWIGLTYKTAKDSFRWATGEHQAFTSFAFGQPDNHGFGNCVELQASAAFNWNNQRCKTRNRYICQFAQEHISRWGPGS
# What was measured:
# Assay in all cases: glycan array binding signal (z-score within array); higher = stronger binding
# Conditions in all cases: glycan notation: IUPAC condensed, linker removed
# [1] = molecular target: GlcNAc(b1-2)[GlcNAc(b1-4)]Man(a1-3)[GlcNAc(b1-4)][GlcNAc(b1-2)[GlcNAc(b1-6)]Man(a1-6)]Man(b1-4)GlcNAc(b1-4)GlcNAc
# How it was run: (§1)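 Glycan array data came from 3228 arrays in the Consortium for Functional Glycomics database, and only arrays with an available protein sequence were kept. Glycan names were put into IUPAC-condensed notation, and columns mapping to the same glycan were averaged. The binding signal is a within-array Z-score, averaged across arrays of one protein sequence run at different concentrations or buffers and across linkers. A negative Z-score can be read as non-binding.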
# [2] = molecular target: GlcNAc(b1-2)[GlcNAc(b1-4)]Man(a1-3)[GlcNAc(b1-4)][GlcNAc(b1-2)[GlcNAc(b1-6)]Man(a1-6)]Man(b1-4)GlcNAc(b1-4)[Fuc(a1-6)]GlcNAc
# How it was run: as §1
# [3] = molecular target: GlcNAc(b1-2)[GlcNAc(b1-6)]Man(a1-6)[GlcNAc(b1-2)Man(a1-3)]Man(b1-4)GlcNAc(b1-4)GlcNAc
# How it was run: as §1
# [4] = molecular target: GlcNAc(b1-2)[GlcNAc(b1-6)]Man(a1-6)[GlcNAc(b1-2)Man(a1-3)]Man(b1-4)GlcNAc(b1-4)[Fuc(a1-6)]GlcNAc
# How it was run: as §1
# [5] = molecular target: GlcNAc(b1-2)[GlcNAc(b1-6)]Man(a1-6)[GlcNAc(b1-4)][GlcNAc(b1-2)Man(a1-3)]Man(b1-4)GlcNAc(b1-4)GlcNAc
# How it was run: as §1
# GlcNAc(b1-3)Fuc = molecular target: GlcNAc(b1-3)Fuc
# How it was run: as §1
# GlcNAc(b1-3)Gal = molecular target: GlcNAc(b1-3)Gal
# How it was run: as §1
# [6] = molecular target: GlcNAc(b1-3)Gal(b1-3)GalNAc
# How it was run: as §1
# GlcNAc(b1-3)Gal(b1-4)Glc = molecular target: GlcNAc(b1-3)Gal(b1-4)Glc
# How it was run: as §1
# [7] = molecular target: GlcNAc(b1-3)Gal(b1-4)GlcNAc
# How it was run: as §1
# [8] = molecular target: GlcNAc(b1-3)Gal(b1-4)GlcNAc(b1-2)Man(a1-3)[GlcNAc(b1-3)Gal(b1-4)GlcNAc(b1-2)Man(a1-6)]Man(b1-4)GlcNAc(b1-4)GlcNAc
# How it was run: as §1
# [9] = molecular target: GlcNAc(b1-3)Gal(b1-4)GlcNAc(b1-2)Man(a1-3)[GlcNAc(b1-3)Gal(b1-4)GlcNAc(b1-2)Man(a1-6)]Man(b1-4)GlcNAc(b1-4)[Fuc(a1-6)]GlcNAc
# How it was run: as §1
# [10] = molecular target: GlcNAc(b1-3)Gal(b1-4)GlcNAc(b1-2)[GlcNAc(b1-3)Gal(b1-4)GlcNAc(b1-6)]Man(a1-6)[GlcNAc(b1-3)Gal(b1-4)GlcNAc(b1-2)Man(a1-3)]Man(b1-4)GlcNAc(b1-4)GlcNAc
# How it was run: as §1
# [11] = molecular target: GlcNAc(b1-3)Gal(b1-4)GlcNAc(b1-3)Gal(b1-4)GlcNAc
# How it was run: as §1
# [12] = molecular target: GlcNAc(b1-3)Gal(b1-4)GlcNAc(b1-3)Gal(b1-4)GlcNAc(b1-2)Man(a1-3)[GlcNAc(b1-3)Gal(b1-4)GlcNAc(b1-3)Gal(b1-4)GlcNAc(b1-2)Man(a1-6)]Man(b1-4)GlcNAc(b1-4)GlcNAc
# How it was run: as §1
# [13] = molecular target: GlcNAc(b1-3)Gal(b1-4)GlcNAc(b1-3)Gal(b1-4)GlcNAc(b1-2)Man(a1-3)[GlcNAc(b1-3)Gal(b1-4)GlcNAc(b1-3)Gal(b1-4)GlcNAc(b1-2)Man(a1-6)]Man(b1-4)GlcNAc(b1-4)[Fuc(a1-6)]GlcNAc
# How it was run: as §1
# [14] = molecular target: GlcNAc(b1-3)Gal(b1-4)GlcNAc(b1-3)Gal(b1-4)GlcNAc(b1-2)[GlcNAc(b1-3)Gal(b1-4)GlcNAc(b1-3)Gal(b1-4)GlcNAc(b1-6)]Man(a1-6)[GlcNAc(b1-3)Gal(b1-4)GlcNAc(b1-3)Gal(b1-4)GlcNAc(b1-2)Man(a1-3)]Man(b1-4)GlcNAc(b1-4)[Fuc(a1-6)]GlcNAc
# How it was run: as §1
# [15] = molecular target: GlcNAc(b1-3)Gal(b1-4)GlcNAc(b1-3)Gal(b1-4)GlcNAc(b1-3)Gal(b1-4)GlcNAc(b1-2)Man(a1-3)[GlcNAc(b1-3)Gal(b1-4)GlcNAc(b1-3)Gal(b1-4)GlcNAc(b1-3)Gal(b1-4)GlcNAc(b1-2)Man(a1-6)]Man(b1-4)GlcNAc(b1-4)GlcNAc
# How it was run: as §1
# [16] = molecular target: GlcNAc(b1-3)Gal(b1-4)GlcNAc(b1-3)Gal(b1-4)GlcNAc(b1-3)Gal(b1-4)GlcNAc(b1-2)Man(a1-3)[GlcNAc(b1-3)Gal(b1-4)GlcNAc(b1-3)Gal(b1-4)GlcNAc(b1-3)Gal(b1-4)GlcNAc(b1-2)Man(a1-6)]Man(b1-4)GlcNAc(b1-4)[Fuc(a1-6)]GlcNAc
# How it was run: as §1
# [17] = molecular target: GlcNAc(b1-3)Gal(b1-4)GlcNAc(b1-3)Gal(b1-4)GlcNAc(b1-3)Gal(b1-4)GlcNAc(b1-2)[GlcNAc(b1-3)Gal(b1-4)GlcNAc(b1-3)Gal(b1-4)GlcNAc(b1-3)Gal(b1-4)GlcNAc(b1-6)]Man(a1-6)[GlcNAc(b1-3)Gal(b1-4)GlcNAc(b1-3)Gal(b1-4)GlcNAc(b1-3)Gal(b1-4)GlcNAc(b1-2)Man(a1-3)]Man(b1-4)GlcNAc(b1-4)[Fuc(a1-6)]GlcNAc
# How it was run: as §1
# [18] = molecular target: GlcNAc(b1-3)Gal(b1-4)GlcNAc(b1-3)Gal(b1-4)GlcNAc(b1-3)Gal(b1-4)GlcNAc(b1-3)Gal(b1-4)GlcNAc(b1-2)Man(a1-3)[GlcNAc(b1-3)Gal(b1-4)GlcNAc(b1-3)Gal(b1-4)GlcNAc(b1-3)Gal(b1-4)GlcNAc(b1-3)Gal(b1-4)GlcNAc(b1-2)Man(a1-6)]Man(b1-4)GlcNAc(b1-4)GlcNAc
# How it was run: as §1
# [19] = molecular target: GlcNAc(b1-3)Gal(b1-4)GlcNAc(b1-3)Gal(b1-4)GlcNAc(b1-3)Gal(b1-4)GlcNAc(b1-3)Gal(b1-4)GlcNAc(b1-2)Man(a1-3)[GlcNAc(b1-3)Gal(b1-4)GlcNAc(b1-3)Gal(b1-4)GlcNAc(b1-3)Gal(b1-4)GlcNAc(b1-3)Gal(b1-4)GlcNAc(b1-2)Man(a1-6)]Man(b1-4)GlcNAc(b1-4)[Fuc(a1-6)]GlcNAc
# How it was run: as §1
# [20] = molecular target: GlcNAc(b1-3)Gal(b1-4)GlcNAc(b1-3)Gal(b1-4)GlcNAc(b1-3)Gal(b1-4)GlcNAc(b1-3)Gal(b1-4)GlcNAc(b1-2)[GlcNAc(b1-3)Gal(b1-4)GlcNAc(b1-3)Gal(b1-4)GlcNAc(b1-3)Gal(b1-4)GlcNAc(b1-3)Gal(b1-4)GlcNAc(b1-6)]Man(a1-6)[GlcNAc(b1-3)Gal(b1-4)GlcNAc(b1-3)Gal(b1-4)GlcNAc(b1-3)Gal(b1-4)GlcNAc(b1-3)Gal(b1-4)GlcNAc(b1-2)Man(a1-3)]Man(b1-4)GlcNAc(b1-4)[Fuc(a1-6)]GlcNAc
# How it was run: as §1
# [21] = molecular target: GlcNAc(b1-3)Gal(b1-4)GlcNAc(b1-3)Gal(b1-4)GlcNAc(b1-3)GalNAc
# How it was run: as §1
# [22] = molecular target: GlcNAc(b1-3)Gal(b1-4)GlcNAc(b1-3)GalNAc
# How it was run: as §1
# [23] = molecular target: GlcNAc(b1-3)Gal(b1-4)GlcNAc(b1-3)[GlcNAc(b1-3)Gal(b1-4)GlcNAc(b1-3)]GalNAc
# How it was run: as §1
# [24] = molecular target: GlcNAc(b1-3)Gal(b1-4)GlcNAc(b1-6)[Gal(b1-3)]GalNAc
# How it was run: as §1
# [25] = molecular target: GlcNAc(b1-3)Gal(b1-4)GlcNAc(b1-6)[GlcNAc(b1-3)Gal(b1-3)]GalNAc
# How it was run: as §1
# [26] = molecular target: GlcNAc(b1-3)Gal(b1-4)GlcNAc(b1-6)[GlcNAc(b1-3)]Gal(b1-4)GlcNAc
# How it was run: as §1
# GlcNAc(b1-3)GalNAc = molecular target: GlcNAc(b1-3)GalNAc
# How it was run: as §1
# GlcNAc(b1-3)Man = molecular target: GlcNAc(b1-3)Man
# How it was run: as §1
# [27] = molecular target: GlcNAc(b1-3)[GlcNAc(b1-4)][GlcNAc(b1-6)]GlcNAc
# How it was run: as §1
# [28] = molecular target: GlcNAc(b1-3)[GlcNAc(b1-6)]Gal(b1-4)GlcNAc
# How it was run: as §1
# [29] = molecular target: GlcNAc(b1-3)[GlcNAc(b1-6)]GalNAc
# How it was run: as §1
# [30] = molecular target: GlcNAc(b1-4)Gal(b1-4)GlcNAc
# How it was run: as §1
# GlcNAc(b1-4)GlcNAc = molecular target: GlcNAc(b1-4)GlcNAc
# How it was run: as §1
# [31] = molecular target: GlcNAc(b1-4)GlcNAc(b1-4)GlcNAc
# How it was run: as §1
# [32] = molecular target: GlcNAc(b1-4)GlcNAc(b1-4)GlcNAc(b1-4)GlcNAc(b1-4)GlcNAc
# How it was run: as §1
binder,measurement,setting,value
B1,glycan array binding signal (z-score),[1],-0.586
same,glycan array binding signal (z-score),[2],-0.552
same,glycan array binding signal (z-score),[3],-0.471
same,glycan array binding signal (z-score),[4],-0.552
same,glycan array binding signal (z-score),[5],-0.425
same,glycan array binding signal (z-score),GlcNAc(b1-3)Fuc,-0.583
same,glycan array binding signal (z-score),GlcNAc(b1-3)Gal,-0.081
same,glycan array binding signal (z-score),[6],-0.394
same,glycan array binding signal (z-score),GlcNAc(b1-3)Gal(b1-4)Glc,-0.407
same,glycan array binding signal (z-score),[7],-0.463
same,glycan array binding signal (z-score),[8],-0.186
same,glycan array binding signal (z-score),[9],-0.292
same,glycan array binding signal (z-score),[10],-0.368
same,glycan array binding signal (z-score),[11],-0.591
same,glycan array binding signal (z-score),[12],-0.223
same,glycan array binding signal (z-score),[13],-0.33
same,glycan array binding signal (z-score),[14],1.18
same,glycan array binding signal (z-score),[15],-0.514
same,glycan array binding signal (z-score),[16],-0.32
same,glycan array binding signal (z-score),[17],-0.388
same,glycan array binding signal (z-score),[18],-0.29
same,glycan array binding signal (z-score),[19],0.249
same,glycan array binding signal (z-score),[20],-0.439
same,glycan array binding signal (z-score),[21],-0.584
same,glycan array binding signal (z-score),[22],-0.538
same,glycan array binding signal (z-score),[23],-0.58
same,glycan array binding signal (z-score),[24],-0.398
same,glycan array binding signal (z-score),[25],-0.43
same,glycan array binding signal (z-score),[26],-0.647
same,glycan array binding signal (z-score),GlcNAc(b1-3)GalNAc,-0.509
same,glycan array binding signal (z-score),GlcNAc(b1-3)Man,-0.616
same,glycan array binding signal (z-score),[27],-0.452
same,glycan array binding signal (z-score),[28],-0.6
same,glycan array binding signal (z-score),[29],-0.541
same,glycan array binding signal (z-score),[30],-0.6
same,glycan array binding signal (z-score),GlcNAc(b1-4)GlcNAc,-0.314
same,glycan array binding signal (z-score),[31],-0.598
same,glycan array binding signal (z-score),[32],-0.553
